According to PMC4336329 (PLoS ONE, 2015):
Screen size: about 310,000 compounds; about 14,000 (4.5%) showed an effect of 50% or more. The effect is printed as a negative number. This is one part of the list.

molecular target: human ether-à-go-go-related gene (hERG) potassium channel (human, UniProt Q12809); assay: primary screen, population patch clamp on CHO cells stably expressing hERG
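Also: peak tail current of the secondary pulse compared with the same well before compound.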

Chain of human ether-à-go-go-related gene (hERG) potassium channel (Q12809 whole entry, looked up): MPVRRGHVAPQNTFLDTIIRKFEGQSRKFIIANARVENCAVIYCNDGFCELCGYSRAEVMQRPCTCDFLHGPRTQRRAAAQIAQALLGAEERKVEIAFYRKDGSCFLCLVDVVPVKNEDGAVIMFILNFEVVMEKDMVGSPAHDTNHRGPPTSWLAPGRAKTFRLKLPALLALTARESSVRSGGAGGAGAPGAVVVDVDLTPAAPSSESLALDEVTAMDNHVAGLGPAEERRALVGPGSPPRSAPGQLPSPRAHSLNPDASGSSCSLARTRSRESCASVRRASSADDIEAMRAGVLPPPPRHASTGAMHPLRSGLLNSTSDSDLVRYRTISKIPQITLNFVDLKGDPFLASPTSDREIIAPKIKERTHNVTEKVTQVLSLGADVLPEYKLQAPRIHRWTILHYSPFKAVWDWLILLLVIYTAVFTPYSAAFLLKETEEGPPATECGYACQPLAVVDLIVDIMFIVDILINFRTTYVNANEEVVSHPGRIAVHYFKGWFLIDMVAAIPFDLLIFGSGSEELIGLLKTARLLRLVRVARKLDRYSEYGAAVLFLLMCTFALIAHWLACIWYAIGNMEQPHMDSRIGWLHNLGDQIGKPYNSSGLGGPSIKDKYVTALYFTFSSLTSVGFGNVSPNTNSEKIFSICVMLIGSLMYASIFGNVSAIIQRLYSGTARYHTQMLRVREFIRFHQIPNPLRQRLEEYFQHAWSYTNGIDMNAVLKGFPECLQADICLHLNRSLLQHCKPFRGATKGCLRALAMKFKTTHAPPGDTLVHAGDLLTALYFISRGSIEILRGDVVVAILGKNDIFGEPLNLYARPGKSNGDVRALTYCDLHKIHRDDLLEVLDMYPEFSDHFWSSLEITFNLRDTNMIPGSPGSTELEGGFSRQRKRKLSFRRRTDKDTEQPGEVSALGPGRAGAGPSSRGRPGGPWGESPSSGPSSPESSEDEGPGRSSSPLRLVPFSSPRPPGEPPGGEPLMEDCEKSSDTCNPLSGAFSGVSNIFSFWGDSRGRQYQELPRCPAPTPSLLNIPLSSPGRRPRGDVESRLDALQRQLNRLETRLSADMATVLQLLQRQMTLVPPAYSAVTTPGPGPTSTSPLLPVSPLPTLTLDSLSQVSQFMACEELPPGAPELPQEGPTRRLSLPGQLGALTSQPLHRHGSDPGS

Row | Structure (SMILES) | hERG current change (%, negative = inhibition) at 10uM [%]
1 | O=C(O)c1[nH]c2ccc(Cl)cc2c1CC(=O)N1CCN(c2ccccc2)CC1 | 7.42
2 | CCOC(=O)c1c(S(=O)(=O)NCC(=O)Nc2cccc(C)c2)c(C)n(C)c1C | 20.1
3 | O=S(=O)(NCCc1ccncc1)c1ccc(S(=O)(=O)N2CCCCCC2)cc1 | -5.98
4 | Cc1nc2ccccn2c1/C(O)=C1\C(=O)C(=O)N(CCCn2ccnc2)C1c1ccncc1 (centres unmarked) | 4.18
5 | COc1ccc(CCNC(=O)c2cnn(-c3ccc(C)c(C)c3)c2NC(=O)c2ccco2)cc1OC | -4.46
6 | CC(C)(Oc1ccc(Cl)cc1)C(=O)Nc1ccncc1 | -21.7
7 | CC(=O)NC(=O)NC(C)Cc1ccccc1 (centres unmarked) | 13.4
8 | O=C(NC1CCCC1)c1cc(-c2ccc(Cl)cc2)on1 | 8.04
9 | COCCN=C1NN=C(c2cc(C)n(CC3CCCO3)c2C)CS1 (centres unmarked) | 19.2
10 | COc1ccc(CN2C(=O)c3ccccc3C2C(=O)NCC2CCCO2)c(OC)c1 (centres unmarked) | 7.33
11 | CCC(C(=O)OCC(=O)NC1CCS(=O)(=O)C1)c1ccccc1 (centres unmarked) | -2.44
12 | CC1CCN(S(=O)C23CC4CC(CC(C4)C2)C3)CC1 (centres unmarked) | 14.2
13 | CC(C)(C)C1CCC(OC(=O)CN2CCOCC2)CC1 (centres unmarked) | 2.28
14 | N#C/C(=C\C=C\c1ccccc1[N+](=O)[O-])c1nc(-c2ccc3c(c2)OCO3)cs1 | -13.1
15 | O=c1cc(-c2ccc(O)cc2)oc2c(O)c(O)c(O)c(O)c12 | 5.79
16 | CC1CCCC(C)N1/N=C/c1ccccc1F (centres unmarked) | 12.1
17 | Cc1cc[n+](-c2[nH]c(=O)sc2/C=N/N=C(\[O-])CCn2c3ccccc3c3ccccc32)cc1 | 11.1
18 | CCCCSc1ncc(C(=O)OCC)c(N)n1 | -19.5
19 | Cc1cccc(-c2nc(CS(=O)CC(=O)NCCc3ccc(Cl)cc3)c(C)o2)c1 (centres unmarked) | -4.38
20 | O=C(Nc1nc2ccc(Cl)cc2s1)c1ccc(N2CCCCC2)c([N+](=O)[O-])c1 | 10.6
21 | Cc1nn(Cc2noc(C(=O)NCCCn3ccnc3)n2)c(C)c1Br | 14
22 | Cc1cccc(C(=O)NCC(=O)N2CCOCC2)c1 | 6

Row | Structure (SMILES) | hERG current change (%, negative = inhibition) at 10uM [%]
23 | Cl.OCCN(CCO)CC(O)COc1ccc2c(c1)OCO2 (centres unmarked) | 2.18
24 | COc1ccc(NS(=O)(=O)c2ccc(C)c(C(=O)N3CC(C)OC(C)C3)c2)cc1 (centres unmarked) | -14
25 | COc1cc(CNCCc2ccccc2F)ccc1OCC(=O)N1CCCCC1.Cl | 1.99
26 | CC(C)(C)c1ccc2c(c1)OCC(C(=O)O)O2 (centres unmarked) | 15.8
27 | Cc1cnc(C(=O)NCCc2ccc(S(=O)(=O)NC(=O)NC3CCCCC3)cc2)cn1 | 0.262
28 | O=C(Oc1ccc(C(=S)N2CCOCC2)cc1)c1ccc([N+](=O)[O-])cc1 | 16.6
29 | CCn1c(SCC(=O)NCc2ccco2)nc2cccnc21 | 0.868
30 | COc1ccc(NC(=O)c2nn(C)c(C(=O)Nc3ccc(OC)cc3)c2[N+](=O)[O-])cc1 | 25.2
31 | CC(C)CNS(=O)(=O)c1ccc(S(=O)(=O)NC2CCOC(C)(C)C2)cc1 (centres unmarked) | -0.841
32 | CCOC(=O)C1CCN(C(=O)Cn2c(=O)c3cccn3c3cccnc32)CC1 | 3.76
33 | CC1CCc2nc(NC(=O)CN3CCN(c4ccc(F)cc4)CC3)sc2C1 (centres unmarked) | -4.39
34 | COc1ccc(-c2nonc2NC(=O)c2oc3ccccc3c2C)cc1OC | 3
35 | COc1cccc(/C=N/NC(=O)c2ccc(CN3c4cccc5cccc(c45)S3(=O)=O)cc2)c1 | 6.69
36 | CCOC(=O)c1oc2ccc(S(=O)(=O)n3nc(-c4cc(OC)c(OC)c(OC)c4)cc3N)cc2c1C | -2.44
37 | CC(Sc1nnc2ccccn12)C(=O)Nc1ncc(Cl)cc1Cl (centres unmarked) | 1.17
38 | COC(=O)Cn1cnc2c(nnn2-c2ccc(OC)cc2)c1=O | 8.87
39 | Cc1ccc(N2C(=O)c3ccc(C(=O)N4CCN(c5cccc(C)c5C)CC4)cc3C2=O)cc1 | -4.83
40 | O=C(NC1C2CC3CC(C2)CC1C3)c1ccc2c(c1)OCO2 (centres unmarked) | -5.92
41 | Cl.O[C@@H]1CCCC[C@H]1N1CCC(c2ccccc2)CC1 | 6.07
42 | CCOc1ccc(S(=O)(=O)N(C)CC(=O)N2CCN(CC)CC2)cc1 | 6.16
43 | O=C(N/N=C/c1coc2ccccc2c1=O)c1cn(-c2ccccc2)nc1-c1ccccc1 | 8.99
44 | CN(C)CCN1C(=O)C(=O)/C(=C(/O)c2ccc3c(c2)OCCO3)C1c1ccccn1 (centres unmarked) | 18.4

Row | Structure (SMILES) | hERG current change (%, negative = inhibition) at 10uM [%]
45 | CC(C)CN1C(=O)NC2(CCCc3ccccc32)C1=O (centres unmarked) | -4.12
46 | COc1ccc(NC(=O)C(c2ccc(OC)cc2)N(C)C(=O)CC2NC(=O)NC2=O)cc1 (centres unmarked) | 12.6
47 | Cc1cc(C)c(S(=O)(=O)N2CCOC2CNC(=O)C(=O)NCCCN2CCOCC2)c(C)c1 (centres unmarked) | 1.05
48 | Cc1noc(C)c1COC(=O)c1cccc(S(=O)(=O)N2CCCCCC2)c1 | -25.8
49 | COc1ccc(NC(=O)CN2C(=O)c3ccccc3S2(=O)=O)cc1OC | 14.6
50 | NC(=S)N/N=C/c1coc2ccc(O)cc2c1=O | -27.6
51 | CCOC(=O)CSc1nc2cc3c(cc2cc1C)OCO3 | 4.81
52 | CC(=O)c1cccc(NC(=O)Cn2cnc(S(=O)(=O)N3CCCCC3)c2)c1 | 12
53 | O=C(CSc1ccc(Cl)cc1)Nc1cccc(NC(=O)c2ccco2)c1 | -10.1
54 | O=C1N=C(N2CCCCC2)S/C1=C\c1ccccc1F | -15.1
55 | Cc1noc(C)c1S(=O)(=O)Nc1cccc(C(F)(F)F)c1 | 8.7
56 | COc1cccc(C(=O)N2C[C@H]3C[C@@H](C2)c2cccc(=O)n2C3)c1 | -6.2
57 | CC(=O)Nc1cccc(NC(=O)COC(=O)CO/N=C(\C)c2ccc3c(c2)OCO3)c1 | 22.3
58 | COC(=O)c1cc(Cl)cc2c(C)c(C3(O)CCCCC3)[nH]c12 | 15
59 | C/C(=N/NC(=O)CNC(=O)C(c1ccccc1)c1ccccc1)c1ccco1 | 12.9
60 | Nn1c(SCC(=O)NCCC2=CCCCC2)nnc1C(F)(F)F | -4.61
61 | O=C(N/N=C/c1cc(Br)ccc1O)C(=O)Nc1ccccc1OC(F)(F)C(F)F | -0.00182
62 | Cc1ccc(NC(=S)NNc2ccc([N+](=O)[O-])cc2S(=O)(=O)Nc2ccccc2C(=O)O)cc1C | 22
63 | Cc1ccc(S(=O)(=O)N(C)CCCC(=O)N2CCN(c3ccccn3)CC2)cc1.[O-][Cl+3]([O-])([O-])O | -46.7
64 | CCCCN(CCCC)c1cn[nH]c(=O)c1Cl | -8.25
65 | O=C(COC(=O)c1ccc(F)cc1Cl)Nc1cccc(S(=O)(=O)N2CCOCC2)c1 | -42.4
66 | Br.O=C(CN1C2=NCCCN2c2ccccc21)c1ccc([N+](=O)[O-])cc1 | -75.1

Row | Structure (SMILES) | hERG current change (%, negative = inhibition) at 10uM [%]
67 | CNc1ccc2oc(C[C@H]3O[C@@]4(CC[C@H]3C)O[C@H]([C@H](C)C(=O)c3ccc[nH]3)[C@H](C)C[C@H]4C)nc2c1C(=O)O | 4.8
68 | O=C(ONC1=NCCCCC1)c1ccc([N+](=O)[O-])cc1 | -5.87
69 | CC(=O)c1cccc(Nc2ncnc3ccc(Br)cc23)c1 | -20.4
70 | CSc1ccc(S(=O)(=O)N2CCCC2)cc1 | 9.36
71 | COc1cc2c(cc1OC)C(C)N(C(=O)c1c(C)noc1C)CC2 (centres unmarked) | 14.2
72 | O=C(Nc1ccc(S(=O)(=O)NC2=NCCCCC2)cc1)c1cc(S(=O)(=O)N2CCOCC2)ccc1F | 5.46
73 | O=C(Nc1cccc2nsnc12)C1CC(=O)N(c2ccccc2)C1 (centres unmarked) | -4.16
74 | CCN(CC)c1ccc(/C=N/Nc2ccccc2)c(O)c1 | -0.389
75 | Cc1cc(NC(=O)CSc2nc3ccccc3n2CC(=O)N2CC(C)CC(C)C2)no1 (centres unmarked) | 9.55
76 | Cc1c(C)[n+](=O)c(-c2ccc(Br)cc2)c(C)n1[O-] | 13.1
77 | CCCCCn1c(=O)c(F)cn(Cc2ccc(OC)c([N+](=O)[O-])c2)c1=O | -56.6
78 | O=C(O)C(=O)O.O=[N+]([O-])c1ccccc1CN1CCN(Cc2c[nH]c3ccccc23)CC1 | -24.2
79 | CNC(=O)CSc1nccn1Cc1ccc(Cl)cc1 | -64.9
80 | Cl.c1cncc(CNC2CCCC2)c1 | 17.5
81 | CN1C(=O)N(C)C2CC1N(C)C(=O)N2C | 1.84
82 | Cc1nc2ccccn2c1C(=O)NCCCN1CCOCC1 | 11.4
83 | Cc1ccc(C(=O)OC2OC(=O)C(Cl)=C2N2CCOCC2)cc1 (centres unmarked) | -7.17
84 | CC(C)[C@H](NC(=O)N1c2ccccc2NC(=O)[C@@H]1C(C)C)C(=O)N1CCC[C@H]1C(=O)O | 18.8
85 | O=C(N/N=C/c1ccccn1)c1ccc([N+](=O)[O-])cc1 | 48
86 | COc1ccc([N+](=O)[O-])cc1NC(=O)COC(=O)c1ccccn1 | 4
